Substrate: Cc1c2[nH]c3cc(OCc4ccccc4)ccc3c2cc[n+]1Cc1ccccc1
Assay: Determination of Km and Vmax of the CYP3A4-catalyzed O-dealkylation reaction (LC-MS quantification of reaction product 1b)
Type: biochemical, human
Conditions: other: substrate of O-dealkylation to 1b, 5 pmol/ml CYP3A4, 2 mM NADPH, pH 7.4, 20 minutes at 37°C
Procedure: The Michaelis-Menten constant (Km) and the maximal reaction velocity (Vmax) are important parameters for inhibition assays. To determine the inhibitory activity of test compounds the substrate concentration in the assay should be about the Km value. […] After incubation for 20 minutes at 37°C the reaction product 1b was quantified using mass spectrometry after liquid chromatography. […] For the calculation of Km and Vmax the Sigma Plot 10.0 software with enzyme kinetic module (SPSS, Inc., Chicago, IL, USA) was used.

B1: recombinant human CYP3A4 (Homo sapiens) (protein)
chain: MALIPDLAMETWLLLAVSLVLLYLYGTHSHGLFKKLGIPGPTPLPFLGNILSYHKGFCMFDMECHKKYGKVWGFYDGQQPVLAITDPDMIKTVLVKECYSVFTNRRPFGPVGFMKSAISIAEDEEWKRLRSLLSPTFTSGKLKEMVPIIAQYGDVLVRNLRREAETGKPVTLKDVFGAYSMDVITSTSFGVNIDSLNNPQDPFVENTKKLLRFDFLDPFFLSITVFPFLIPILEVLNICVFPREVTNFLRKSVKRMKESRLEDTQKHRVDFLQLMIDSQNSKETESHKALSDLELVAQSIIFIFAGYETTSSVLSFIMYELATHPDVQQKLQEEIDAVLPNKAPPTYDTVLQMEYLDMVVNETLRLFPIAMRLERVCKKDVEINGMFIPKGVVVMIPSYALHRDPKYWTEPEKFLPERFSKKNKDNIDPYIYTPFGSGPRNCIGMRFALMNMKLALIRVLQNFSFKPCKETQIPLKLSLGGLLQPEKPVVLKVESRDGTVSGA
notes: purchased BD Biosciences (Supersomes)
- Km: 1.6 µM
- kcat: 7.7 pmol/min/pmol CYP3A4

— patent EP2151441A1, “Beta-carbolin-derivates as substrates for an enzyme” (Julius-Maximilians-Universität Würzburg, priority 2008, dated 2010)
